# In the supplement of paper PMC7826260:
# Some of the results follow. One pool of 16,384 single-stranded DNAs met each Rep nickase domain in vitro (3 µM enzyme, 1 h, 37 °C); shown is the middle of each 90-letter strand. The score is log2 (uncut reads / reads without enzyme); strong cutting gives strongly negative numbers. There is no active / inactive call. Because reads are shares of a total, they shift together; uncut strands gain when others are lost, and binding without cutting may add a little.
# System: T1, Rep nickase domain of maize striate mosaic virus
# T1 sequence (residues 1-117, tag not shown): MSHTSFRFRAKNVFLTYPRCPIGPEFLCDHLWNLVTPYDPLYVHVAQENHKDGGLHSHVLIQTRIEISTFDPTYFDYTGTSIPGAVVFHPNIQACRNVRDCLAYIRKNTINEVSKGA
# Experiment: uncleaved DNA left, log2 of reads against the no-enzyme library (log2 ratio); higher = less cleavage (more negative = more Rep cleavage of the k-mer); sequences stand for … in CTCGTCCG…ACCGGAGA
# Protocol: (§1)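 A pool of 90-nt single-stranded DNAs with seven random bases just before the constant AC of the nick site (name = the seven bases) was cut by 3 µM recombinant His6-SUMO-tagged Rep nickase domain (300 nM DNA, 50 mM HEPES pH 8.0, 50 mM NaCl, 1 mM MnCl2, 1 h, 37 °C, three replicates). Uncut DNA was amplified and sequenced.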
row,Sequence,uncleaved DNA left (log2)
1,CTTCGTA,-0.993
2,CTCCATG,-1.13
3,AGGCAGC,0.0647
4,GTAATAC,1.69
5,GTGTCGA,0.251
6,CAAGGCC,-0.244
7,TCCGATC,-0.11
8,CACGCTA,-0.336
9,GACCCCT,0.767
10,GGGTATA,2.17
11,CAGCCTC,0.103
12,CACCGAT,0.0773
13,GGCTCGG,1.92
14,CGCCTCC,0.573
15,CATTGAG,1.41
16,TAGTGTC,-0.661
17,GCCGCTA,-0.0492
18,TGGGAGA,2.04
19,CAGTTAT,0.229
20,AGGACGT,2.06

row,Sequence,uncleaved DNA left (log2)
1,CCATCAA,-0.454
2,CGATAAA,-0.254
3,GGTGGTG,-0.0326
4,GACCGTG,-0.851
5,CGTGCAT,-0.0833
6,GCATAGC,-0.92
7,CATCACC,-0.526
8,GTGCGGC,0.44
9,GTCAGGC,0.904
10,GACAGAG,-0.679
11,AACTCTC,-0.513
12,CGAACTG,1.74
13,GCTCTCT,-0.0415
14,CCTCCAG,-0.949
15,GCCAATG,-0.461
16,GCATGGC,-1.04
17,TTGAAAC,-0.192
18,GACCCCA,1.66
19,GGACGAC,2.07
20,TCGGGCG,-0.817

# System: T2, Rep nickase domain of porcine circovirus 2
# T2 sequence (residues 2-116, tag not shown): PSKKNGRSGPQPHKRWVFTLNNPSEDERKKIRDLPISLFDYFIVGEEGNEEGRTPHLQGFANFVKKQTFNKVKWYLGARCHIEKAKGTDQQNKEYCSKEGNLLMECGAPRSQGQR
# Experiment: as above
# Protocol: as §1
row,Sequence,uncleaved DNA left (log2)
1,CTTCGTA,-0.111
2,CTCCATG,0.136
3,AGGCAGC,0.224
4,GTAATAC,-0.963
5,GTGTCGA,0.126
6,CAAGGCC,-0.0302
7,TCCGATC,0.122
8,CACGCTA,-0.028
9,GACCCCT,-0.261
10,GGGTATA,0.191
11,CAGCCTC,-0.243
12,CACCGAT,-0.212
13,GGCTCGG,0.0403
14,CGCCTCC,0.0641
15,CATTGAG,0.263
16,TAGTGTC,-3.01
17,GCCGCTA,0.0512
18,TGGGAGA,0.307
19,CAGTTAT,-3.53
20,AGGACGT,0.183

row,Sequence,uncleaved DNA left (log2)
1,CCATCAA,0.0927
2,CGATAAA,0.245
3,GGTGGTG,0.169
4,GACCGTG,-0.0586
5,CGTGCAT,-0.157
6,GCATAGC,0.167
7,CATCACC,-0.0635
8,GTGCGGC,0.197
9,GTCAGGC,0.189
10,GACAGAG,0.067
11,AACTCTC,-3.15
12,CGAACTG,0.0238
13,GCTCTCT,-0.303
14,CCTCCAG,0.25
15,GCCAATG,0.275
16,GCATGGC,0.125
17,TTGAAAC,0.0393
18,GACCCCA,-0.0492
19,GGACGAC,0.137
20,TCGGGCG,0.107

# System: T3, Rep nickase domain of tomato golden mosaic virus
# T3 sequence (residues 1-124, tag not shown): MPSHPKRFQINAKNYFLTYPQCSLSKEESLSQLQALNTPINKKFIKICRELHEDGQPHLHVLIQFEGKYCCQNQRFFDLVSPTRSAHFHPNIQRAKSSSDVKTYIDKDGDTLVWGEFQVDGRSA
# Experiment: as above
# Protocol: as §1
row,Sequence,uncleaved DNA left (log2)
1,CTTCGTA,-0.0206
2,CTCCATG,-0.176
3,AGGCAGC,0.00645
4,GTAATAC,0.0867
5,GTGTCGA,0.0447
6,CAAGGCC,0.034
7,TCCGATC,-0.11
8,CACGCTA,0.065
9,GACCCCT,-0.0302
10,GGGTATA,0.109
11,CAGCCTC,-0.146
12,CACCGAT,0.112
13,GGCTCGG,0.136
14,CGCCTCC,-0.104
15,CATTGAG,0.048
16,TAGTGTC,0.0558
17,GCCGCTA,0.056
18,TGGGAGA,0.0769
19,CAGTTAT,0.0039
20,AGGACGT,0.0643

row,Sequence,uncleaved DNA left (log2)
1,CCATCAA,0.02
2,CGATAAA,0.12
3,GGTGGTG,0.0346
4,GACCGTG,-0.127
5,CGTGCAT,-0.278
6,GCATAGC,0.0603
7,CATCACC,0.00614
8,GTGCGGC,0.0549
9,GTCAGGC,0.106
10,GACAGAG,0.0254
11,AACTCTC,-0.146
12,CGAACTG,-0.0125
13,GCTCTCT,-0.0718
14,CCTCCAG,0.0793
15,GCCAATG,0.206
16,GCATGGC,-0.0815
17,TTGAAAC,0.0262
18,GACCCCA,0.0335
19,GGACGAC,-0.114
20,TCGGGCG,0.0868

# System: T4, Rep nickase domain of tomato yellow leaf curl virus
# T4 sequence (residues 1-136, tag not shown): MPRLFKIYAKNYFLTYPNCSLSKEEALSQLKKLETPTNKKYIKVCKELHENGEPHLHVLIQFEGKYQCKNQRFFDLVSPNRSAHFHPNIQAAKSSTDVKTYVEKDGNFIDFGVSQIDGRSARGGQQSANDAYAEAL
# Experiment: as above
# Protocol: as §1
row,Sequence,uncleaved DNA left (log2)
1,CTTCGTA,0.0684
2,CTCCATG,-0.0816
3,AGGCAGC,-0.0449
4,GTAATAC,0.147
5,GTGTCGA,0.0522
6,CAAGGCC,0.00829
7,TCCGATC,-0.0933
8,CACGCTA,-0.149
9,GACCCCT,0.0144
10,GGGTATA,0.0369
11,CAGCCTC,-0.185
12,CACCGAT,0.00308
13,GGCTCGG,0.00651
14,CGCCTCC,0.0066
15,CATTGAG,0.274
16,TAGTGTC,0.0534
17,GCCGCTA,0.0155
18,TGGGAGA,0.0974
19,CAGTTAT,-0.0805
20,AGGACGT,0.000316

row,Sequence,uncleaved DNA left (log2)
1,CCATCAA,0.0122
2,CGATAAA,0.0992
3,GGTGGTG,0.0538
4,GACCGTG,-0.0733
5,CGTGCAT,-0.103
6,GCATAGC,0.186
7,CATCACC,-0.061
8,GTGCGGC,0.0899
9,GTCAGGC,0.13
10,GACAGAG,-0.014
11,AACTCTC,-0.102
12,CGAACTG,0.049
13,GCTCTCT,-0.115
14,CCTCCAG,0.163
15,GCCAATG,0.0253
16,GCATGGC,-0.0298
17,TTGAAAC,0.0967
18,GACCCCA,-0.0015
19,GGACGAC,-0.0468
20,TCGGGCG,0.123

# System: T5, Rep nickase domain of wheat dwarf virus
# T5 sequence (residues 1-137, tag not shown): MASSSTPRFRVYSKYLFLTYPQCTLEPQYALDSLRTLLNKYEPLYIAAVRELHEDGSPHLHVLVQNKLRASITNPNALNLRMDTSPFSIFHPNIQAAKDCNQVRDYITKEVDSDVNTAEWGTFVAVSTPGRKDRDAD
# Experiment: as above
# Protocol: as §1
row,Sequence,uncleaved DNA left (log2)
1,CTTCGTA,0.0688
2,CTCCATG,-0.191
3,AGGCAGC,-0.0128
4,GTAATAC,0.0487
5,GTGTCGA,0.125
6,CAAGGCC,0.0223
7,TCCGATC,0.0621
8,CACGCTA,-0.141
9,GACCCCT,0.0199
10,GGGTATA,0.0795
11,CAGCCTC,-0.173
12,CACCGAT,0.0164
13,GGCTCGG,0.0463
14,CGCCTCC,0.0221
15,CATTGAG,0.128
16,TAGTGTC,-0.122
17,GCCGCTA,-0.0507
18,TGGGAGA,0.0546
19,CAGTTAT,-0.0375
20,AGGACGT,0.153

row,Sequence,uncleaved DNA left (log2)
1,CCATCAA,0.191
2,CGATAAA,0.113
3,GGTGGTG,0.0926
4,GACCGTG,-0.165
5,CGTGCAT,-0.0866
6,GCATAGC,0.0286
7,CATCACC,0.0216
8,GTGCGGC,0.0686
9,GTCAGGC,0.104
10,GACAGAG,-0.0831
11,AACTCTC,-0.00155
12,CGAACTG,0.107
13,GCTCTCT,0.00291
14,CCTCCAG,-0.102
15,GCCAATG,0.0545
16,GCATGGC,-0.182
17,TTGAAAC,0.118
18,GACCCCA,0.148
19,GGACGAC,0.0779
20,TCGGGCG,-0.0802
